In all, about 310,000 compounds went through this assay and about 14,000 (4.5%) showed an effect of 50% or more. The effect is printed as a negative number. Some of the results follow.
biological target: human ether-à-go-go-related gene (hERG) potassium channel (human, UniProt Q12809); experiment: primary screen, population patch clamp on CHO cells stably expressing hERG
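Note: peak tail current of the secondary pulse compared with the same well before compound.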

Sequence of human ether-à-go-go-related gene (hERG) potassium channel (Q12809 whole entry, looked up): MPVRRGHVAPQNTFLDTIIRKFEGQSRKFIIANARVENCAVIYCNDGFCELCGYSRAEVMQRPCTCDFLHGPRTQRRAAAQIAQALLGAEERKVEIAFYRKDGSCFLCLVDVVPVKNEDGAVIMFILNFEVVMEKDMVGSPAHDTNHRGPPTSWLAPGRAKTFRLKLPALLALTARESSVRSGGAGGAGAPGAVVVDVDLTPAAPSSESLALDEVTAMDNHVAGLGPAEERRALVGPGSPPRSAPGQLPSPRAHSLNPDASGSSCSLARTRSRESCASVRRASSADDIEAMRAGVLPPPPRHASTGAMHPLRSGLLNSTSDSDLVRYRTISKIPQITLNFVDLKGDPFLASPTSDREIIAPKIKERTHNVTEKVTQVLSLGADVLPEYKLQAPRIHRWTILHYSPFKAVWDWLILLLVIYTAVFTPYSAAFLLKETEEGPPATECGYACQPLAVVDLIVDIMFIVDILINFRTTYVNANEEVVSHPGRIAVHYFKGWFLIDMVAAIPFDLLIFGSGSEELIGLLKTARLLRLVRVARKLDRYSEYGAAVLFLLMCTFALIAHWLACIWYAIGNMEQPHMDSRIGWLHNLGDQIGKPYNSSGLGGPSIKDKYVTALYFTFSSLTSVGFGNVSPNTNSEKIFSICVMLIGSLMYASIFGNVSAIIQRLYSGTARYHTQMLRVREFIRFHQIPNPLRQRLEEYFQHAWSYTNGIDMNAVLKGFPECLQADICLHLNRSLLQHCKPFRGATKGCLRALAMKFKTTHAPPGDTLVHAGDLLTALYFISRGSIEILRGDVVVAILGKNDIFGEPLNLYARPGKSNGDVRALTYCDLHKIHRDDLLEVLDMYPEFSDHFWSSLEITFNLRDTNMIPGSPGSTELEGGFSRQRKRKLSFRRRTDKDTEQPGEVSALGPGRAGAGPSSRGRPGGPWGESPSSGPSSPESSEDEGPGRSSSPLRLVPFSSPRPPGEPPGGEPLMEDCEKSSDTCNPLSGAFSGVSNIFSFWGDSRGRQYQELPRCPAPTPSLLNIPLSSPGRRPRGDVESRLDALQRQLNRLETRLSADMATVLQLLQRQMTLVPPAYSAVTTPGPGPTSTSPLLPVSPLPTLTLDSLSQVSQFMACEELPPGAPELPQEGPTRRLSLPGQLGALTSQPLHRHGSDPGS

SMILES	hERG current change (%, negative = inhibition) at 10uM
O=C(c1cc(C2CC2)nn1-c1ccccc1)N1CCN(Cc2ccc(Cl)cc2)CC1	-32.1%
O=C(COC(=O)c1ccccc1O)Nc1ccc(S(=O)(=O)N2CCCCC2)cc1	3.29%
CCOC(=O)C1CCN(c2cc(=O)n(-c3ccc(OC)cc3)c(=O)[nH]2)CC1	6.19%
NC(=O)c1ccsc1NC(=O)COC(=O)c1cc(Cl)ccc1O	-2.09%
COc1ccccc1NC(=O)COC(=O)c1ccc([N+](=O)[O-])s1	-3.31%
CNc1ccc(Br)cc(C(=O)/C=C/c2cccc(OC)c2OC)c1=O	-11.2%
CCOC(=O)c1c(NC(=O)CN2CCCc3ccccc32)sc(C(C)=O)c1C	5.24%
CN(C)c1ccc(/C=N/NC(=O)CCCCCNC(=O)c2ccccc2)cc1	-18.6%
O=C(c1cc(-c2ccco2)on1)N1CCCc2ccccc21	5.89%
Cc1ccc(NC(=O)/C(=C/c2cccs2)NC(=O)c2ccco2)c(C)c1	-9.56%
O=C(Cn1cc2c(n1)CCCC2)NCCc1ccccc1	2.36%
O=C(O)c1ccccc1OC(=O)C12CC3CC(CC(C3)C1)C2	18.1%
CCCCc1ccc(-c2ccc(C)cc2O)nc1	-18.3%
CC(=O)Nc1ccc(C(=O)OCC(=O)c2ccc(S(=O)(=O)N3CCCCC3)cc2)cc1	2.62%
COc1cc2c(-c3ccc(O)cc3)nc3c(c(C)nn3-c3ccccc3)c2cc1OC	11.5%
Cc1ccsc1C(=O)Nc1nc2ccccc2[nH]1	4.88%
O=C(N/N=C/c1ccccc1C(=O)O)C(=O)N1CCCCC1	18.2%
COc1ccc(NC(=O)CCOc2ccc(C)cc2)cc1S(=O)(=O)N1CCCCC1	-24.2%
Cc1ccc2cc(C#N)c(NCc3ccco3)nc2c1	9.87%
COc1ccc(/C=N/NC(=O)CCSc2nc3ccccc3s2)cc1OC	-12.8%
O=C(COC(=O)c1ccc2ncsc2c1)NC(=O)c1ccccc1	23.7%
CCN1C(=NCCc2cccs2)N[C@@H](c2cccs2)C(C(=O)OC)=C1C	-64.2%

SMILES	hERG current change (%, negative = inhibition) at 10uM
CSCC[C@H](NC(=O)C1CCC(CNC(=O)[C@@H]2CCCN2)CC1)C(=O)O.Cl (stereo partly drawn)	9.86%
Cc1cc2c(c(SCC(=O)N(C)c3ccccc3)n1)C(=O)OC2	2.8%
CSc1nnc(-c2ccccc2)o1	-5.33%
CCOC(=O)N=Nc1c(O)n(CC)c2ccccc12	-1.8%
COc1ccc(C(=O)NNC2CC(=O)N(Cc3ccccc3)C2=O)cc1OC (stereo not drawn)	-9.35%
CC(=O)c1c(C)nc(-c2ccc(OCC(=O)Nc3ccccc3)cc2)n1O	9.07%
COc1ccccc1CNC(=O)COC(=O)c1cc(=O)[nH]c2ccccc12	1.03%
Cc1nnc(C)n1/N=C/c1ccccn1	-24.8%
COc1ccc(CCN(C)C(=O)c2c(C)nn(-c3ccccc3)c2C)cc1OC	17.7%
Cc1ccc(OCC(=O)N2CCCCCC2)c(C)c1	4.77%
COc1ccc(N2CCN(C(CNS(=O)(=O)c3cc(F)ccc3F)c3cccnc3)CC2)cc1 (stereo not drawn)	-69%
O=C(CSc1nnc(COc2ccc(Cl)cc2)o1)OC1CCCCC1	3.24%
C=CCn1c(SCC(=O)N2CCOCC2)nc(O)c(Cc2ccccc2)c1=O	15.4%
COc1ccc(CCNc2ccc(S(=O)(=O)N3CCCC3)cc2[N+](=O)[O-])cc1	6.78%
CC(C)CC(=O)NNC(=S)Nc1ccc(S(N)(=O)=O)cc1	16.7%
Cc1nc(C(=O)NNC(=O)c2ccc(C(F)(F)F)cc2)cs1	3.56%
CSc1ccc(CN2CCN(C3CCCC3)C(CCO)C2)cc1 (stereo not drawn)	-53.8%
O=C(NCc1ccccn1)c1ccc(NC(=O)c2ccco2)cc1	-0.238%
O=C(NCc1ccco1)c1cc(S(=O)(=O)N2CCOCC2)ccc1Cl	-24.4%
CC(=O)Nc1ccc(S(=O)(=O)NCCCN2CCN(Cc3ccccc3)CC2)cc1Cl	-18.9%
CC(=O)Nc1ccc(Nc2nc(C(F)(F)F)nc3c2nnn3Cc2ccccc2Cl)cc1	14.9%
NC(=O)CSc1ncc(-c2ccccc2)[nH]1	13.3%

SMILES	hERG current change (%, negative = inhibition) at 10uM
CC(C)(Sc1cc(C(C)(C)C)c(O)c(C(C)(C)C)c1)Sc1cc(C(C)(C)C)c(O)c(C(C)(C)C)c1	22%
COc1cccc(CN(C)CC(O)COC(c2ccccc2)c2ccccc2C)c1 (stereo not drawn)	-72.1%
COC(=O)c1c[nH]n2c(=O)c(Cc3ccc(F)cc3Cl)c(C)nc12	-8.9%
Nc1nnnn1/N=C/c1ccc(N2CCCCC2)c([N+](=O)[O-])c1	6.54%
CC(=O)c1sc(NC(=O)c2cccc(C)c2)nc1C	14.6%
O=C(O)Cc1c(O)ccc2ccccc12	8.27%
CN(Cc1ccc(F)cc1)C(=O)CNC(=O)c1cccs1	8.07%
CC(=O)Nc1ccc(NC(=O)C(Sc2ccccc2)c2ccccc2)cc1 (stereo not drawn)	7.38%
CC(C)c1ccc(NC(=O)NCc2ccccn2)cc1	16.4%
CCOC(=O)/C(C#N)=C/c1cn(CCC(=O)O)nc1-c1ccc(F)cc1	4.24%
CN(Cc1ccc(C(F)(F)F)cc1)C(=O)c1ccc2ccccc2n1	-14.3%
CCOC(=O)C1=C(COC(=O)COc2ccc(C(C)=O)cc2)NC(=O)NC1C (stereo not drawn)	1.71%
N#Cc1c(-c2cccs2)nc(SCC(=O)c2cccs2)[nH]c1=O	-2.99%
CCCCn1c(N)c(N(CC(C)C)C(=O)C2CCN(C(=O)c3ccc(F)cc3)CC2)c(=O)[nH]c1=O	-3.7%
COC(CNS(=O)(=O)c1ccc(S(=O)(=O)N2CCCC2)cc1)OC	5.43%
O=C(NC1CC1)C1=C[C@@H](c2coc3ccccc3c2=O)C[C@@H](OCCCCO)O1	-23.8%
COc1cc(/C=N\NC(C)=O)ccc1OC/C=C/c1ccccc1	19.9%
O=C(CN(c1ccccc1F)S(=O)(=O)c1ccccc1)Nc1ccc2c(c1)OCCO2	9.5%
CCCCn1c(SCC(=O)Nc2cc(C)on2)nnc1-c1ccncc1	-2.69%
CCc1cc2cc(C)c(C)cc2nc1SCC(=O)Nc1cc(C)on1	10.5%
CCS(=O)(=O)NCc1csc(C)n1	-3.59%
O=C(Nc1ccnn1C1CCN(Cc2cccc(OCCO)c2)CC1)c1cccc(F)c1	-12.3%

SMILES	hERG current change (%, negative = inhibition) at 10uM
COc1ccc(NC(C)=O)cc1NC(=O)c1cccc(S(=O)(=O)N2CCN(Cc3ccccc3)CC2)c1	-27.8%
O=C(NCCc1ccccc1)c1ccc(NC2=NC3CS(=O)(=O)CC3S2)cc1 (stereo not drawn)	1.97%
CSc1ccc(CNc2ccc(C)cc2)cc1	7.52%
CN(C)c1cccc(C(=O)N(Cc2ccccc2)Cc2ccccc2)c1	6.05%
COc1ccc(NC(=O)CC2C(=O)N(c3cccc(OC)c3)C(=O)N2Cc2ccco2)cc1 (stereo not drawn)	-20.9%
CCN1C(=NCc2ccc(OC)cc2)N[C@@H](CCc2ccccc2)[C@H](C(=O)NCc2ccc(OC)cc2)[C@H]1C	-65.4%
CN(C)c1cc[n+](CC(=O)Nc2ccccc2C(F)(F)F)cc1.[Cl-]	4.83%
O=C1CCCN1CCCNC(=S)Nc1ccc(F)c(Cl)c1	-5.32%
C[C@@H]1C[C@H](O)c2cc(Cl)ccc2N1	2.62%
COc1ccc(-c2cn[nH]c2-c2ccc(OCc3ccc([N+](=O)[O-])cc3)cc2O)cc1OC	7.08%
O=C(c1cccc([N+](=O)[O-])c1)N1CCN(c2n[nH]c(=O)[nH]c2=O)CC1	7.6%
O=c1ccc2ccc(O[C@@H]3O[C@H](CO[C@@H]4OC[C@](O)(CO)[C@H]4O)[C@@H](O)[C@H](O)[C@H]3O)cc2o1	22.8%
Cc1cc(/C=C2/NC(=S)NC2=O)c(C)n1-c1cccnc1	8.26%
COCCNC(=S)N/N=C(\C)c1ccccc1OC	3.66%
CNC(=O)N(O)C1N(C)C(=O)N(Cc2ccccc2)C1(C)C (stereo not drawn)	2.41%
C/C(=N\NC(=O)c1cccs1)c1cccnc1	7.31%
COc1cccc(-c2cc(C(=O)N/N=C/c3ccco3)c3ccccc3n2)c1	-2.76%
COc1ccc(NC(=O)Nc2cc(F)ccc2C)cc1	34.1%
Cc1cccnc1CN1CCN(C(=O)c2cc(COc3ccc4ncccc4c3)on2)CC1	12.8%
CN(C(=O)COC(=O)c1ccc(Cl)nc1)C1CCS(=O)(=O)C1 (stereo not drawn)	16.2%
O=C(COC(=O)C1CCN(S(=O)(=O)c2cccs2)CC1)c1ccc2c(c1)OCCO2	15.1%

Reference: PMC4336329 (PLoS ONE, 2015)
